In all, about 310,000 compounds went through this assay and about 14,000 (4.5%) showed an effect of 50% or more. The effect is printed as a negative number. The list shows a part of the results.
Each molecule was assayed against human ether-à-go-go-related gene (hERG) potassium channel (human, UniProt Q12809) (assay: primary screen, population patch clamp on CHO cells stably expressing hERG).
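Note: peak tail current of the secondary pulse compared with the same well before compound.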

human ether-à-go-go-related gene (hERG) potassium channel, sequence (Q12809 whole entry, looked up): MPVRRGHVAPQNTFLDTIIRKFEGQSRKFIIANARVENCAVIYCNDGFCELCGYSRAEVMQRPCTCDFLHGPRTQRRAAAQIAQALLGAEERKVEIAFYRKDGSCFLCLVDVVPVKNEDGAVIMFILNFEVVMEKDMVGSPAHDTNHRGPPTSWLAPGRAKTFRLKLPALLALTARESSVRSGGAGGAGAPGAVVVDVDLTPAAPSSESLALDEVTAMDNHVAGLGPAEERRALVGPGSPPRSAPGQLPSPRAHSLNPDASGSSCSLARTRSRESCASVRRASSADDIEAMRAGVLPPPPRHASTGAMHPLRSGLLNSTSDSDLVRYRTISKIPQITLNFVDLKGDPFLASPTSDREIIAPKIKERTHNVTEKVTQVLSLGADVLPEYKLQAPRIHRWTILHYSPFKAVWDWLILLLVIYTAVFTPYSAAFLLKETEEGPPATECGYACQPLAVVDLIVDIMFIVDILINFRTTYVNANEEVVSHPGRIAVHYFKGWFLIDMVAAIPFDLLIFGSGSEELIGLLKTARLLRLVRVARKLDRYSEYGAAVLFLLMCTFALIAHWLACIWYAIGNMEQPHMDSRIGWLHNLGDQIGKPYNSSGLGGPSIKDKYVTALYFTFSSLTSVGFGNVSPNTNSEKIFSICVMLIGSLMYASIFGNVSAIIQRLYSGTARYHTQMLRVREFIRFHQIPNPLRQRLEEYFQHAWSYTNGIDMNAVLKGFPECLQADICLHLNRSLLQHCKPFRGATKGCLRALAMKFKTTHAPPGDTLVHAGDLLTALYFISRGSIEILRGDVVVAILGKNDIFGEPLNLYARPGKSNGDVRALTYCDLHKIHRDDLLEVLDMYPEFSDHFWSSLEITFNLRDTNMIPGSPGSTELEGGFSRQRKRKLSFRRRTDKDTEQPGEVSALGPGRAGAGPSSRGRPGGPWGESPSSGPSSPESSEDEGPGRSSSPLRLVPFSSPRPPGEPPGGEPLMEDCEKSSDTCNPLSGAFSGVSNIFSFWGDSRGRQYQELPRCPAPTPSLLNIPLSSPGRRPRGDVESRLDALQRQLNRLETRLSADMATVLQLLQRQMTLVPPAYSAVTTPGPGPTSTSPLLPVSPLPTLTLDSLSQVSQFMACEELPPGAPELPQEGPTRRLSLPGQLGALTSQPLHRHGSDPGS

SMILES | hERG current change (%, negative = inhibition) at 10uM [%]
OC(c1ccccc1)c1nc2ccccc2s1 (stereo not shown) | -12.3
C=C(C)c1sc(-c2ccc(Cl)cc2)nc1C | 14
COc1ccc(OCC(=O)Nc2ccncc2)cc1 | -17.3
CN(CC(=O)Nc1cccc(Cl)c1)S(=O)(=O)c1ccc2[nH]c(=O)oc2c1 | -3.67
Cc1cc2nnc(SCC(=O)N3CCCCCC3)n2c(N)n1 | -5.01
CC(C)CC(=O)N1CCN(Cc2cccc(Cl)c2)CC1 | 7.42
CCN1CCN(c2ccc(NC(=O)c3ccccc3F)cc2Cl)CC1 | -70.1
COc1ccc(C(C(O)C(=O)c2c[nH]c3ccccc23)N2CCN(c3ccc(OC)cc3)CC2)cc1 (stereo not shown) | -7.36
O=C(COc1ccccc1Cl)Nc1ccc(C(=O)c2ccc(C(=O)O)cc2)cc1 | 11.7
O=S(=O)(c1ccc(OCC(O)CN2CCN(c3ccccc3Cl)CC2)cc1)N1CCOCC1 (stereo not shown) | -34.7
COC(=O)c1ccc(C)c(NC(=O)Cc2ccc([N+](=O)[O-])cc2)c1 | 0.529
COc1cccc(C2C(C#N)=C(N)Oc3cc(C)[nH]c(=O)c32)c1OC (stereo not shown) | -10.4
CN(CC(=O)N1CCN(C2CCCCC2)CC1)S(=O)(=O)c1cccc2nsnc12 | -24
COc1ccc2nc(NC(=O)c3ccc([N+](=O)[O-])o3)sc2c1 | 14.3
CCOc1ccccc1N1CCN(C(=O)CSc2ccc3c(c2)OCCO3)CC1 | -21
COc1cc(C(=O)NCC(=O)Nc2ccc(F)c(F)c2)ccc1OCC(=O)N1CCOCC1 | 13.5
CCOC(=O)CSc1nc2cccnc2n1-c1ccc(F)cc1 | -1.48
COc1ccc(C(=O)CSc2ccccc2C(=O)O)cc1 | 22.5
CCN(CC(=O)Nc1cc(Cl)ccc1C)C(=O)c1ccc(N2CCCC2=O)cc1 | 10.1
Cn1c(C(=O)N/N=C/c2ccccc2)cc2ccccc21 | 13.8
Cc1cc(C)n(-c2nc3ccccc3nc2N2CCCC2)n1 | -8.74
Cc1ccc2c(Cl)c(C(=O)Nc3ccc4c(c3)OCO4)sc2c1 | 2.7
CCN(CC(=O)NCCCN1CCOCC1)S(=O)(=O)c1ccc(Cl)cc1 | -18.7
NS(=O)(=O)c1ccc(CCNC(=O)CCS(=O)(=O)c2ccc(Br)cc2)cc1 | 19.2
CCC(C)(C)n1nnnc1C(c1ccccn1)N1CCCCC1 (stereo not shown) | -4.06

Source: PMC4336329 (PLoS ONE, 2015)
